Experimental data reported in PubChem BioAssay AID1159614 (National Center for Advancing Translational Sciences (NCATS), 2016).
Among all 45,000 compounds or so, about 65 (0.1%) were called active. Calls come from the whole dose curve; as a rule, active = well fitted activation curve with a large enough effect; inconclusive = small, poorly fitted or top-dose-only effect; inactive = no such curve, though single readings can be large or run the other way. This is one part of the list.

Each compound was assayed against Galactocerebrosidase (Homo sapiens) (UniProt P54803) (assay: A Novel Cell-Based Assay to Identify Small Molecules for B -Galactocerebrosidase). Settings: 145M-Twi-hGALC-G270D cells (Twitcher mouse brain line with human GALC G270D), HMU-beta-Gal fluorescence, 48 h; series mostly up to 57.5 µM; activation: at the top concentration.
Procedure, shortened: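 Fluorescence readout: HMU-β-gal cleavage by mutant GALC (0.1 mM final, citrate/phosphate pH 5.2 with 1 mg/mL taurocholate), stopped with carbonate/bicarbonate plus Triton X-100. Cells: murine Twitcher 145M-Twi expressing human G270D GALC; qHTS for activators.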
Note: 0% is about no effect; nearly all actives have a fitted effect of over 65% in size.

Sequence of UniProt P54803 (P54803 whole entry, looked up): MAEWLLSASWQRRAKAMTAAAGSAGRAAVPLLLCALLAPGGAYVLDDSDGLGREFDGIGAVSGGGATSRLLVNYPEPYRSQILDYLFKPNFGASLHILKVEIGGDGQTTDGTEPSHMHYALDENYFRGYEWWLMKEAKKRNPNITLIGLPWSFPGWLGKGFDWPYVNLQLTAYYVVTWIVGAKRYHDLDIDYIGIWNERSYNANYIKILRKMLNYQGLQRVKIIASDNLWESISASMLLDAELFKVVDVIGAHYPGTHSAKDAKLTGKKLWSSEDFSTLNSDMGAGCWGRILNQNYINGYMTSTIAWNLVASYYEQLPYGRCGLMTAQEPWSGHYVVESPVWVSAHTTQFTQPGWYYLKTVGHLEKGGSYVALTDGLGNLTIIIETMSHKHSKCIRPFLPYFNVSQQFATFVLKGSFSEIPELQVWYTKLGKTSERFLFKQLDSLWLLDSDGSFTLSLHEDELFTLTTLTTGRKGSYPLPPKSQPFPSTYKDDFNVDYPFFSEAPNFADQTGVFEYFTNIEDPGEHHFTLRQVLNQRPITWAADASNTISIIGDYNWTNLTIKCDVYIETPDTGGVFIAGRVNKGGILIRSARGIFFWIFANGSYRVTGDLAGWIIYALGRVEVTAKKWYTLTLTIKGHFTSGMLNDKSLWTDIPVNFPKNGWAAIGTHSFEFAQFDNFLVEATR

activation, inactive:
Cc1ccc(S(=O)(=O)C(CNC(=O)C(=O)NCc2ccc(Cl)cc2)c2cccs2)cc1 (centres undefined) -2.41%
Cc1ccc(C(=O)NCCn2c(C)cc3ccccc32)cc1C -7.91%
Nc1ccc2c(c1)CN1C(=O)c3ccccc3C1=N2 -11.3% [at 23.8 µM]
Cc1cc(C)cc(-n2nnc(-c3nc(-c4ccc5c(c4)OCO5)no3)c2C)c1 -12.3%
COc1cccc(C(=O)NCCSc2c(-c3ccc(F)cc3)[nH]c3ccccc23)c1OC -10.3%
Cc1ccc(CNC(=O)C2CCCN(S(=O)(=O)c3ccc4c(c3)oc(=O)n4C)C2)cc1 (centres undefined) -8.09%
O=C1CN(C(=O)c2ccc(S(=O)(=O)N3CCCCC3)cc2)C(c2ccc(F)cc2)c2cc(F)ccc2N1 (centres undefined) -27.1%
CC(Oc1ccc(F)cc1)C(=O)NCC1(N(C)C)CCCCC1 (centres undefined) -2.94%
Cc1c(NC(=O)c2ccc(OC(C)C)cc2)cccc1-c1nc2ncccc2o1 -9.57%
Cc1ccc(S(=O)(=O)c2cn(CC(=O)Nc3ccc(C)c(Cl)c3)c3ccc(C)cc3c2=O)cc1 -8.47%
Cc1ccc(NCc2cccn2-c2nnc(N3CCC(C(=O)NC(C)C)CC3)s2)cc1 5.05%
COc1ccc(-c2cn3nc(N4CCC(C(=O)NCc5ccccc5F)CC4)sc3n2)cc1 -3.61%
Cc1ccc(S(=O)(=O)N2CCCc3cc(NS(=O)(=O)c4ccc(F)c(C)c4)ccc32)cc1 -20.9%
COc1ccc(-c2cc(C(F)(F)F)c(C#N)c(SCC(=O)Nc3ccc(F)cc3)n2)cc1 -4.62%
CCCS(=O)(=O)Nc1cc(-c2cn3cccc(C)c3n2)ccc1C -15.4%
CC(C)Oc1ccc(CNC(=O)CCCn2c(=O)c3cccn3c3ccccc32)cc1 -35.3%
CCCC(O)C(CC)CO (centres undefined) -19.4%
CC(CN(C)C)CN1c2ccccc2CCc2ccccc21 (centres undefined) -11.2%
CCc1ccc(CNC(=O)c2ccc3c(c2)N=C(C)c2cc(C)ccc2S3)cc1 -13.9%
CN(C)CCNC(=O)c1ccc(-n2c(-c3ccccc3)cc3c2CCCC3)cc1 1.2%
COP(=O)(OC)OC(c1ccc(Cl)cc1)P(=O)(OC)OC (centres undefined) -12.7%
CCCNC(=O)c1ccc2c(c1)ncn2-c1ccc(C)cc1C -14.4%
COc1ccc(NC(=O)Cn2c(=O)oc3cc(S(=O)(=O)NC4CCCC4)ccc32)cc1OC 2.02%
COc1ccc(CNc2ncnc3onc(C)c23)cc1 -16.3%
CCOC(=O)c1c(NC(=O)CS(=O)(=O)c2ccc(C)cc2)sc2c1CCCCC2 -24.7%
Cc1ccc(C(C)C)c(OCC(=O)Nc2cccc(NC(=O)c3ccco3)c2)c1 -2.33%
CC1=Nc2cc(C(=O)NCCc3ccc(Cl)cc3)ccc2Sc2ccc(C)cc21 -23.7%
CCC(CC)C(=O)NC1CC(=O)N(c2ccc3c(c2)OCCO3)C1 (centres undefined) 1.78%
Cc1ccc(-c2ccc(=O)n(Cc3cc(C)ccc3C)n2)cc1 -2.96%
Cc1ccc(-c2nc3cccnc3s2)cc1NC(=O)C(C)C -8.67%
Cc1nc(-c2ccccc2)sc1-c1ccc(SCC(=O)NCc2ccc(F)cc2)nn1 1.87%
Cn1c(=O)c2c(SCC(=O)N3CCc4ccccc43)nc(-c3ccccc3Cl)nc2n(C)c1=O -11.4%
CCOc1ccc(-n2c(CCC(=O)O)ccc2-c2ccc(Br)cc2)cc1 -12.8%
COC(=O)C(Cc1c[nH]c2ccccc12)NC(=O)COc1ccc(Cl)cc1Cl (centres undefined) -11%
CCOc1ccc(-n2c(SCC(=O)N3CCCC3)nc3c([nH]c4ccccc43)c2=O)cc1 -12%
Cc1cccc(NS(=O)(=O)c2ccc3[nH]c(=O)ccc3c2)c1C 26.8%
CCc1ccc(CNC(=O)CCSCc2ccccc2F)cc1 -9.15%
COc1cccc(C2=CC(c3ccc(OC)c(OC)c3OC)n3ncnc3N2)c1 (centres undefined) -12.2%
O=C(CSc1nc(-c2ccccc2)no1)N1CCN(c2ccccc2F)CC1 5.51%
O=C(Cn1c(=O)nc(-c2ccccc2)c2ccccc21)Nc1ccc(Cl)c(C(F)(F)F)c1 -7.09%
CCN(C(=O)Cc1nc(-c2ccc(OC)cc2)no1)c1cccc(Cl)c1 -5.53%
COc1ccc(C(=O)c2cn(CC(=O)Nc3ccc4c(c3)OCCO4)c3ccc(OC)cc3c2=O)cc1 -4.89%
COc1ccccc1OCCn1c(-c2ccc(Cl)cc2)nc2ccccc2c1=O -5.21%
Cc1oc2ccc(O)c(CN(C)Cc3ccccc3)c2c1C(=O)Nc1cccc(C(F)(F)F)c1 2.55%
COc1cc(NC(=O)Cn2c(=O)oc3cc(S(=O)(=O)N4CCCCCC4)ccc32)cc(OC)c1 -15.6%
COc1ccc(OC)c(NC(=O)CSc2ccnc(=O)[nH]2)c1 -14%
COc1ccc(NC(=O)c2c(NCc3ccc(C)o3)sc3c2CCC(C)C3)c(OC)c1 (centres undefined) -9.64%
Cn1c(=O)oc2cc(S(=O)(=O)CCC(=O)N3CCN(c4ccccc4)CC3)ccc21 -18.3%
COc1ccccc1-c1cc(C(=O)Nc2sc3c(c2C#N)CCCC3)no1 -18.5%
CCOc1ccc(CCNC(=O)CN2C(=O)C(CC)Oc3ccccc32)cc1OCC (centres undefined) -1.74%
COc1ccc(C(=O)NCc2nnc(SCC(=O)Nc3ccccc3)n2-c2ccc(F)cc2)cc1 15.2%
CC(C)NCC(O)COc1cccc2[nH]ccc12 (centres undefined) -7.6%
COC(=O)c1c(-c2ccc(Cl)cc2)noc1N1CCN(c2ccc(OC)cc2)CC1 -13.1%
Cc1ccc2c(c1)NC(=O)C(CC(=O)Nc1cc(Cl)ccc1C)O2 (centres undefined) -15.4%
COc1ccc(C2CC(c3c(O)n(C4CCCCC4)c(=O)[nH]c3=O)=Nc3ccccc3S2)cc1 (centres undefined) 1.64%
COc1ccccc1N1CCN(S(=O)(=O)c2c(C)sc3ncn(CC(=O)Nc4cccc(Cl)c4)c(=O)c23)CC1 -22.6%
O=C(Nc1ccc(Br)cc1)C1CCN(c2cnccn2)CC1 -15.2%
COc1cc(OC)c(Nc2cc(C)nc3ncnn23)cc1Cl -5.33%
CCc1nn2c(=O)cc(COC(=O)CNC(=O)c3ccccc3)nc2s1 7.05%
O=C(COc1ccccc1F)OCc1cc(=O)n2nc(-c3cccs3)sc2n1 -8.56%
CCC(C(=O)N1CCN(c2ccccc2)CC1)n1nc(C)n2c(cc3sccc32)c1=O (centres undefined) -11.3%
COc1ccccc1CNC(=O)c1ccc(N2CCCC2)c(NC(=O)NCc2ccccc2)c1 -6.51%
CCN(CC)S(=O)(=O)c1nnc(NC(=O)COc2ccccc2Cl)s1 -15.7%
CCOc1ccc(C(=O)Nc2cccc(NC(=O)c3ccco3)c2)cc1Cl -22.6%
